Binding signal data for 31 molecules are collected here from publication PMC9911399, “Two distinct binding modes provide the RNA-binding protein RbFox with extraordinary sequence specificity”.

Positions count from the first letter of the chain named. Some of the results follow.

The labels stand for the following.
T1: RBFOX1 RRM (Homo sapiens, UniProt Q9NWB1 109-208)
T1 sequence: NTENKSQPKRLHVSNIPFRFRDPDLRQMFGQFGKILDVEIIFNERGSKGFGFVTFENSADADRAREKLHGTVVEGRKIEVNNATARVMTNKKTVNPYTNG

B1: UCUAUUA (DNA:RNA)
RNA: GGGAGACCGGAAUUCAGAUUGUCCUCUAUUAUUAAAUCCCGUCGUAGCCACCA
DNA 1: CAATCTGAATTCCGGTCTCCC
DNA 2: TGGTGGCTACGACGGGATT
B2: UUCCACA (DNA:RNA)
RNA: B1 RNA with C26U, U27C, A28C, U29A, U30C
DNA 1: CAATCTGAATTCCGGTCTCCC
DNA 2: TGGTGGCTACGACGGGATT
B3: GUCCAUC (DNA:RNA)
RNA: B1 RNA with U25G, C26U, U27C, A28C, U29A, A31C
DNA 1: CAATCTGAATTCCGGTCTCCC
DNA 2: TGGTGGCTACGACGGGATT
B4: GCACGAA (DNA:RNA)
RNA: B1 RNA with U25G, U27A, A28C, U29G, U30A
DNA 1: CAATCTGAATTCCGGTCTCCC
DNA 2: TGGTGGCTACGACGGGATT
B5: UUUUGGA (DNA:RNA)
RNA: B1 RNA with C26U, A28U, U29G, U30G
DNA 1: CAATCTGAATTCCGGTCTCCC
DNA 2: TGGTGGCTACGACGGGATT
B6: UAUCAGC (DNA:RNA)
RNA: B1 RNA with C26A, A28C, U29A, U30G, A31C
DNA 1: CAATCTGAATTCCGGTCTCCC
DNA 2: TGGTGGCTACGACGGGATT
B7: AGUUUUC (DNA:RNA)
RNA: B1 RNA with U25A, C26G, A28U, A31C
DNA 1: CAATCTGAATTCCGGTCTCCC
DNA 2: TGGTGGCTACGACGGGATT
B8: CCGUCGA (DNA:RNA)
RNA: B1 RNA with U25C, U27G, A28U, U29C, U30G
DNA 1: CAATCTGAATTCCGGTCTCCC
DNA 2: TGGTGGCTACGACGGGATT
B9: UUGAUUC (DNA:RNA)
RNA: B1 RNA with C26U, U27G, A31C
DNA 1: CAATCTGAATTCCGGTCTCCC
DNA 2: TGGTGGCTACGACGGGATT
B10: GAGUACA (DNA:RNA)
RNA: B1 RNA with U25G, C26A, U27G, A28U, U29A, U30C
DNA 1: CAATCTGAATTCCGGTCTCCC
DNA 2: TGGTGGCTACGACGGGATT
B11: CGAAGCU (DNA:RNA)
RNA: B1 RNA with U25C, C26G, U27A, U29G, U30C, A31U
DNA 1: CAATCTGAATTCCGGTCTCCC
DNA 2: TGGTGGCTACGACGGGATT
B12: UGCUUUA (DNA:RNA)
RNA: B1 RNA with C26G, U27C, A28U
DNA 1: CAATCTGAATTCCGGTCTCCC
DNA 2: TGGTGGCTACGACGGGATT
B13: AUUGGUG (DNA:RNA)
RNA: B1 RNA with U25A, C26U, A28G, U29G, A31G
DNA 1: CAATCTGAATTCCGGTCTCCC
DNA 2: TGGTGGCTACGACGGGATT
B14: CUAACAA (DNA:RNA)
RNA: B1 RNA with U25C, C26U, U27A, U29C, U30A
DNA 1: CAATCTGAATTCCGGTCTCCC
DNA 2: TGGTGGCTACGACGGGATT
B15: GACGAGG (DNA:RNA)
RNA: GGGAGACCGGAAUUCAGAUUGUCCGACGAGGUUAAAUCCCGUCGUAGCCACCA
DNA 1: CAATCTGAATTCCGGTCTCCC
DNA 2: TGGTGGCTACGACGGGATT
B16: AAUCGUA (DNA:RNA)
RNA: B1 RNA with U25A, C26A, A28C, U29G
DNA 1: CAATCTGAATTCCGGTCTCCC
DNA 2: TGGTGGCTACGACGGGATT
B17: GUAUACA (DNA:RNA)
RNA: B15 RNA with A26U, C27A, G28U, G30C, G31A
DNA 1: CAATCTGAATTCCGGTCTCCC
DNA 2: TGGTGGCTACGACGGGATT
B18: GUUGGUA (DNA:RNA)
RNA: B1 RNA with U25G, C26U, A28G, U29G
DNA 1: CAATCTGAATTCCGGTCTCCC
DNA 2: TGGTGGCTACGACGGGATT
B19: CCAUACA (DNA:RNA)
RNA: B1 RNA with U25C, U27A, A28U, U29A, U30C
DNA 1: CAATCTGAATTCCGGTCTCCC
DNA 2: TGGTGGCTACGACGGGATT
B20: GGAAUGA (DNA:RNA)
RNA: B1 RNA with U25G, C26G, U27A, U30G
DNA 1: CAATCTGAATTCCGGTCTCCC
DNA 2: TGGTGGCTACGACGGGATT
B21: UAGGUCC (DNA:RNA)
RNA: B15 RNA with G25U, C27G, A29U, G30C, G31C
DNA 1: CAATCTGAATTCCGGTCTCCC
DNA 2: TGGTGGCTACGACGGGATT
B22: AAACCAC (DNA:RNA)
RNA: B15 RNA with G25A, C27A, G28C, A29C, G30A, G31C
DNA 1: CAATCTGAATTCCGGTCTCCC
DNA 2: TGGTGGCTACGACGGGATT
B23: CCAAAAU (DNA:RNA)
RNA: B1 RNA with U25C, U27A, U29A, U30A, A31U
DNA 1: CAATCTGAATTCCGGTCTCCC
DNA 2: TGGTGGCTACGACGGGATT
B24: GCUCGGU (DNA:RNA)
RNA: B15 RNA with A26C, C27U, G28C, A29G, G31U
DNA 1: CAATCTGAATTCCGGTCTCCC
DNA 2: TGGTGGCTACGACGGGATT
B25: UCAUCGC (DNA:RNA)
RNA: B1 RNA with U27A, A28U, U29C, U30G, A31C
DNA 1: CAATCTGAATTCCGGTCTCCC
DNA 2: TGGTGGCTACGACGGGATT
B26: GUCUAGC (DNA:RNA)
RNA: B15 RNA with A26U, G28U, G31C
DNA 1: CAATCTGAATTCCGGTCTCCC
DNA 2: TGGTGGCTACGACGGGATT
B27: CCAUAGC (DNA:RNA)
RNA: B15 RNA with G25C, A26C, C27A, G28U, G31C
DNA 1: CAATCTGAATTCCGGTCTCCC
DNA 2: TGGTGGCTACGACGGGATT
B28: UCGGUGC (DNA:RNA)
RNA: B1 RNA with U27G, A28G, U30G, A31C
DNA 1: CAATCTGAATTCCGGTCTCCC
DNA 2: TGGTGGCTACGACGGGATT
B29: CUAUGGG (DNA:RNA)
RNA: B15 RNA with G25C, A26U, C27A, G28U, A29G
DNA 1: CAATCTGAATTCCGGTCTCCC
DNA 2: TGGTGGCTACGACGGGATT
B30: UACCUGG (DNA:RNA)
RNA: B15 RNA with G25U, G28C, A29U
DNA 1: CAATCTGAATTCCGGTCTCCC
DNA 2: TGGTGGCTACGACGGGATT
B31: UUGCAGA (DNA:RNA)
RNA: B15 RNA with G25U, A26U, C27G, G28C, G31A
DNA 1: CAATCTGAATTCCGGTCTCCC
DNA 2: TGGTGGCTACGACGGGATT

This assay addresses T1, RBFOX1 RRM. The assay is described as follows: EMSA; HiTS-Eq, 1 nM pool, 10 min; buffer printed only for the single-RNA assays: 10 mM Tris pH 7.5, 150 mM NaCl, 3.4 mM EDTA, 0.001% NP-40, 30 C. To be noted: tags: His6 N-terminal (pET28a); label: 5' 32P. Put shortly: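 Purified RbFox RRM (wild type or mutant) was equilibrated for 10 min in 50 µL with 1 nM of a 5′-radiolabelled pool of RNA with 7 randomized nucleotides, its flanks annealed to DNA oligonucleotides, across increasing protein concentrations. Free RNA was separated by 8% native PAGE, excised, reverse-transcribed, PCR-barcoded and sequenced on an Illumina HiSeq 2500. Relative association constants came from read-count changes of each variant against the control reaction, normalised to the cognate motif.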
B1: the binding signal was 0.00279 KA relative to UGCAUGU.
The figure for B2 is 0.00262 KA relative to UGCAUGU; for B3 it is 0.00868 KA relative to UGCAUGU.
The figure for B4 is 0.0197 KA relative to UGCAUGU; for B5 it is 0.00404 KA relative to UGCAUGU; for B6 it is 0.0125 KA relative to UGCAUGU.
The figure for B7 is 0.0117 KA relative to UGCAUGU.
For B8, the binding signal was 0.00849 KA relative to UGCAUGU.
The figure for B9 is 0.0169 KA relative to UGCAUGU.
B10: the binding signal was 0.006 KA relative to UGCAUGU.
The figure for B11 is 0.00649 KA relative to UGCAUGU; for B12 it is 0.0103 KA relative to UGCAUGU.
The figure for B13 is 0.0275 KA relative to UGCAUGU.
The figure for B14 is 0.0014 KA relative to UGCAUGU.
Regarding B15, the binding signal was 0.0171 KA relative to UGCAUGU.
The figure for B16 is 0.00315 KA relative to UGCAUGU; for B17 it is 0.00201 KA relative to UGCAUGU.
The figure for B18 is 0.0216 KA relative to UGCAUGU.
The figure for B19 is 0.00184 KA relative to UGCAUGU; for B20 it is 0.0487 KA relative to UGCAUGU.
On to B21, for which the binding signal was 0.0159 KA relative to UGCAUGU.
For the molecule B22, the binding signal is 0.00213 KA relative to UGCAUGU.
The figure for B23 is 0.00117 KA relative to UGCAUGU; for B24 it is 0.0213 KA relative to UGCAUGU.
The figure for B25 is 0.00956 KA relative to UGCAUGU; for B26 it is 0.0126 KA relative to UGCAUGU.
The figure for B27 is 0.0011 KA relative to UGCAUGU; for B28 it is 0.0236 KA relative to UGCAUGU.
For B29, the binding signal was 0.00291 KA relative to UGCAUGU.
The figure for B30 is 0.011 KA relative to UGCAUGU; for B31 it is 0.018 KA relative to UGCAUGU.
